Measured values as given in the supplement of paper PMC11417369.
± gives the standard deviation of the averaged measurements. The list shows a part of the results.

tested on: PfAP2-LT AP2 domain (GST-tagged); assay: gcPBM binding intensity (ln(normalized median fluorescence intensity)); higher = stronger DNA binding
Outline: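 Binding intensity is defined as the maximum Masliner-normalised natural-log median intensity across replicate spots for either probe orientation. It was measured on an Agilent 4 × 180k array of primer-extended double-stranded 36-bp intergenic genomic probes and negative controls, to which GST-tagged P. falciparum DNA-binding domains made in E. coli were applied for 1 h in 1× PBS with 1% milk, 0.2 mg/ml BSA, 0.5% salmon testes DNA and 0.03% Triton X-100. Detection was by Alexa488 anti-GST antibody and scanning at 488 nm.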

Row | Sequence | gcPBM binding intensity (ln)
1 | TCCATATGCAAACTGGTGCACAAGTAGCTTTTATAT | 8.77 ± 0.31
2 | ATTGTCCTAAATACTACAAAGTAGATCTTTAATATT [CACACA_negctrl_site1795] | 8.58 ± 0.41
3 | CAAAAAAGGTCCCGGAGTACATATATAATTTTTTTT [XGTACX_site458] | 8.59 ± 0.4
4 | GAGATGACATTACACAGTACCCAGGAAATCTACGGA [XGTACX_site4931] | 8.91 ± 0.51
5 | TATATATTGTTATATACACACATGTATATAAAAAAT [CACACA_site3221] | 8.87 ± 0.35
6 | TGTGTATTATAAACATGTACATAAAAATACGATATT [XGTACX_site3643] | 8.93 ± 0.34
7 | CGCACTAAAAAACACACACACACACCCATATATATA [CACACA_site4152] | 10.2 ± 0.29
8 | AAAAAAAAATAATATACACACTCCAATATAAAAAAT [CACACA_site3958] | 9.06 ± 0.38
9 | TTTTTTAAAATAATAGGTACACATAAAAAAAAAAAA [XGTACX_site2517] | 8.39 ± 0.33
10 | AATGATGTTGTATTGTTTCGATATAACATCTAATTT [GTGCAC_negctrl_site309] | 8.62 ± 0.3
11 | TTTTTTCATTTTTTATTTTTTTATTTTTTACATATT [GTGCAC_negctrl_site137] | 8.68 ± 0.6
12 | AAGGATTATTTTAATCGTACATGTGTAAATAATATA [XGTACX_site6177] | 8.75 ± 0.49
13 | TTATTTATTTTCATATGTACTTATTTATAGAGGTTG [XGTACX_site5599] | 8.72 ± 0.52
14 | CATACATACATACATACACACATATATATATATATG [CACACA_site1995] | 9.46 ± 0.26
15 | TATATATATAGACACACACACATATAAATAAATAAA [CACACA_site444] | 9.56 ± 0.34
16 | ATATAATAACAAAAGGTGCGCATTAAGACAAAAAAA | 9.27 ± 0.49
17 | TTTTTCCCCCTTTTTTTGATTTTTATCTTAATTCTA [TGCATGCA_negctrl_site287] | 8.59 ± 0.5
18 | TATTATATTGTTCATTTACACTTTCATTTTAAAAAA [CACACA_negctrl_site260] | 8.53 ± 0.42
19 | ATATAATAAAATTAATGTACATATATGTATTATATA [XGTACX_site3283] | 8.87 ± 0.48
20 | TTTCATATATATGAAACACACAAAGGAAAAAAAATT [CACACA_site4144] | 8.84 ± 0.45
21 | ACAAGTTTATTTGTTGCACACATATAAGTAGAGAAA [CACACA_site8994] | 8.88 ± 0.46
22 | AAAAAAAAAAAACACACACACATAGACCTCCAATAG [CACACA_site3562] | 9.77 ± 0.25

Row | Sequence | gcPBM binding intensity (ln)
23 | AACATAATCTCATATACACACAAAAATATTGAAATA [CACACA_site7085] | 9.04 ± 0.28
24 | GCTCATATGACAACAACACACAAAAAAATAAAATGA [CACACA_site714] | 9.12 ± 0.5
25 | ATATTTTGTTATGTAGATGTTGGTAGGAATTTTGGT [CACACA_negctrl_site1104] | 8.83 ± 0.4
26 | AATAAATAAATAAATAAAACAAAGGGATTACATACA [TGCATGCA_negctrl_site513] | 8.81 ± 0.53
27 | CACAACATATATATATATATATATATATATATGTGT [CACACA_negctrl_site28] | 9.44 ± 0.57
28 | TACTTTTTAGGAAAGTGTACAAGCATATAAGGAATA [XGTACX_site2834] | 8.65 ± 0.54
29 | TTAAAAAAATATTGAAGTACACACATTATAAACTTT [XGTACX_site3548] | 8.69 ± 0.47
30 | ATATTTAACAGGTTAAAAATATAAACAAATAAATAA [CACACA_negctrl_site907] | 8.53 ± 0.57
31 | GAGAGGATAGTTCACAGTACTCAGTAACTCTACGGA [XGTACX_site4875] | 8.87 ± 0.44
32 | TAATAATATATTTGTAGTACACAATTTTTTATAACT [XGTACX_site3951] | 8.6 ± 0.52
33 | TACTTATATACACATGTATATTATATATATAATATA [XGTACX_negctrl_site335] | 8.72 ± 0.38
34 | TGTTATTAAAATATAGTGCATAATTAACCATTATAA [GTGCAC_site9594] | 8.54 ± 0.5
35 | CACACGCACGGACACACACACATATAAAATCTATAT [CACACA_site6428] | 9.85 ± 0.57
36 | TACTATAACAGACATACACACAAAAAAAAAAAAAAA [CACACA_site538] | 9.03 ± 0.47
37 | AATATATAAATTGACACACACATATATACATATATA [CACACA_site1213] | 9.29 ± 0.32
38 | TGTTAATATATCATTATGTTATAGGTTCAGCTGGGA [CACACA_negctrl_site401] | 8.56 ± 0.38
39 | GATATGTTTTCCTAGGTTCATGATGATAGGTAGTTT [XGTACX_negctrl_site217] | 8.94 ± 0.48
40 | TTTGTGGTTACATGTGCACACACTTATTTCGTTCTT [CACACA_site1435] | 9.59 ± 0.45
41 | TATATTTGTTAATTTTGTACGTATGGATATACATAA [XGTACX_site5100] | 8.61 ± 0.43
42 | TATAAATATAGAATTACACACAATGTTCTATAAATA [CACACA_site7508] | 8.67 ± 0.47
43 | AAGGTGGTTATTAAATGTACACAGACATATACAAAA [XGTACX_site3007] | 8.82 ± 0.46
44 | AGGTAGAAAAAAGACACACACATTATATATATATAT [CACACA_site4367] | 9.61 ± 0.29
